Reference: PubChem BioAssay AID1346428 (National Center for Advancing Translational Sciences (NCATS), 2018)
“And” between values parts separate entries of the source, which are not always exact repeats. Equal entries are not always repeated. Screen size: about 48,000 compounds; about 1,200 (2.5%) were called active. Another 2% or so got no clear call; they are omitted.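 Rule for the calls: active = activation of at least 60% and not above a set upper limit (about 1 call in 100 departs from these limits); inconclusive = activation of 40% to 60%, or above that upper limit; inactive = activation under 40%.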 Some of the results follow.

Molecular target: Probable G-protein coupled receptor 32 (Homo sapiens) (UniProt O75388)
Assay: qHTS for Agonists of Human Resolvin D1 Receptor DRV1; note: 0% is about no effect
Conditions: CHO-K1 GPR32 beta-arrestin PathHunter luminescence, 90 min; at 76.9 µM; stronger effect = higher value; zero percent set by DMSO-only wells
Summary of the method: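 Engineered CHO-K1 line co-expressing GPR32-ProLink and EA-beta-arrestin. Compound treatment lasted 90 min at 37 °C. Luminescence was recorded after 1 h with substrate at ambient temperature, relative to DMSO basal wells.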

UniProt O75388, sequence (O75388 whole entry, looked up): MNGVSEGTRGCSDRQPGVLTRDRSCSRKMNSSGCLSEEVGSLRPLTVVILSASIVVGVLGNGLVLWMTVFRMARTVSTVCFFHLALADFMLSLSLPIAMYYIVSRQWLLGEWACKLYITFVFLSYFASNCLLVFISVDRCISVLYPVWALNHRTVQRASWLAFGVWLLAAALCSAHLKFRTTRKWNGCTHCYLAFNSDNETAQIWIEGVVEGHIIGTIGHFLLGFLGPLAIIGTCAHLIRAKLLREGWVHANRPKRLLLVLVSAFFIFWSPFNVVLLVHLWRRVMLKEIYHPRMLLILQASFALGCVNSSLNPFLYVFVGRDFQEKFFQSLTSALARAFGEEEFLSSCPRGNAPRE

activation, inactive:
CCCC(=O)c1ccc(OC(=O)c2c(-c3ccccc3Cl)noc2C)cc1 4.13%
Cc1nnc(NC(=O)C(=O)c2cc(C)n(-c3ccc(C)c(C)c3)c2C)s1 22.5%
COc1ccc(-c2ccc(CCC(=O)O)n2CC(=O)Nc2cccc(C(F)(F)F)c2)cc1 -21.2%
COc1ccc(-c2cn3c(n2)sc2cc(C(=O)Nc4cc(OC)cc(OC)c4)ccc23)cc1 -4.8%
N#Cc1c(NC(=O)CS(=O)(=O)c2ccc(Cl)cc2)sc2c1CCCCC2 7.61%
CCc1ccc(-n2c(=O)c3cccnc3n2CC(=O)Nc2ccccc2C(F)(F)F)cc1 -21.7%
CCOC(=O)c1c(NC(C)=O)c2c3c(sc2n1Cc1nc(-c2cccc(C)c2)oc1C)CCCC3 -16.9%
COc1ccc(N2CCN(C(=O)c3ccc4c(Cl)c5c(nc4c3)CCCC5)CC2)cc1 -9.02%
OCCCc1nc2n(n1)C(c1cccc(Cl)c1)C=C(c1ccccc1)N2 (stereo not drawn) 8.94%
COc1ccccc1-c1nc(CNC(=O)Nc2ccccc2)c(C)o1 23%
COc1ccccc1C(=O)NC1=NC(c2ccc(Br)cc2)CC(=O)N1 (stereo not drawn) -2.66%
COc1cc(-c2cc(OC)c3c(C)oc(C)c3c(=O)c2)ccc1OC(=O)c1ccccc1F -19.4%
CCOc1ccc(-c2cc(C(=O)NCCc3ccc(Cl)cc3)c3ccccc3n2)cc1 -19.5%
COc1ccc(CN2C(=O)N(c3ccc(C)cc3)C(=O)C2CC(=O)Nc2ccccc2)cc1OC (stereo not drawn) -0.161%
O=[N+]([O-])c1cc(-c2nc(-c3ccccc3)no2)ccc1NC1CCCC1 -10.2%
CCCc1cc(C(=O)Nc2c(C)nn(Cc3ccc(Cl)c(Cl)c3)c2C)no1 38%
CCCCCCNC(=O)n1cc(F)c(=O)[nH]c1=O -6.11%
CCc1ccc(C2CC(=O)Oc3c2c(=O)n(C)c2ccccc32)cc1 (stereo not drawn) -3.78%
COc1ccc(N(C)C(=O)c2cc(S(=O)(=O)N3CCc4ccccc43)cn2C)c(OC)c1 -14.3%
Cc1cccc(-c2nc(C(N)=O)c3c(n2)n(-c2ccc4c(c2)OCO4)c(=O)n3C)c1 -8.44%
CCCCc1ccc(NC(=O)C2(C)Cc3ccccc3C(=O)O2)cc1 (stereo not drawn) 41.2%
COc1ccc(CNC(=O)Cn2nc(C)c3c(C)n(-c4ccccc4)nc3c2=O)cc1OC -25.2%
Cc1ccc(CN(Cc2ccco2)c2cnc(S(C)(=O)=O)nc2C(=O)Nc2ccccc2Br)o1 -22.6%
CCCCC(CC)CN=C(N)NC(N)=NCCCCCCN=C(N)NC(N)=NCC(CC)CCCC (stereo not drawn) 1.39%
Cn1c(=O)c2nc(SCC(=O)Nc3ccc(Cl)c(Cl)c3)n(C)c2n(C)c1=O 14.7%
Cc1cc(C)cc(NC(=O)Cn2cc(C(=O)c3ccccc3)c(=O)c3ccc(C)nc32)c1 -10.1%
COC(=O)CN1C(=O)C(O)(CC(=O)c2ccc(F)cc2)c2ccccc21 (stereo not drawn) -7.12%
Cc1ccc(-n2c3nc(=O)[nH]c(=O)c-3cc3c(C)nn(-c4ccccc4)c32)c(C)c1 -7.38%
Cc1ccc(Cl)cc1NC(=O)CCS(=O)(=O)c1ccc2c(c1)n(C)c(=O)c(=O)n2C -18.5%
CCN(CC)CCNC(=O)COc1ccc(Cl)cc1 11.7%
Cc1nn(CC(=O)N2CCCCC2)c(=O)c2cc3occc3n12 0.997%
O=C(Nc1ccc(Cl)cc1)c1cc2c(-c3ccccc3)nn(-c3ccccc3)c2s1 -5.41%
CC(NC(=O)C1CCN(S(=O)(=O)c2ccc3nc4c(c(C(=O)O)c3c2)CCCC4)CC1)c1ccccc1 (stereo not drawn) -61.6%
CC(C)Cn1cc(NC(=O)NCc2ccccc2Cl)c2ccccc2c1=O -59.4%
COc1cccc(NC(=O)c2ccc3nc(Cc4ccccc4)oc3c2)c1 2.06%
COc1ccc(-c2cc(C(=O)Nc3sc4c(c3C#N)CCCC4)no2)cc1OC 8.99%
O=C(CSc1oc(-c2ccccc2)nc1S(=O)(=O)c1ccccc1)c1ccccc1 -3.21%
Cc1ccc(NC(=O)CCS(=O)(=O)c2cc(Br)cc3c2N(C(=O)C2CC2)CC3)cc1 3.19%
CCc1ccc(-n2c(SCc3cccc(F)c3)nc3[nH]ncc3c2=O)cc1 -18.1%
CC(C)CCN1C(=O)c2ccccc2CC1(C)C(=O)NC1CCCCC1 (stereo not drawn) -24.7%
CCC(=O)Nc1ccccc1C(=O)OCc1cc(=O)n2cc(C)sc2n1 -25.5%
COc1ccc(OC)c(NC(=O)Cn2c(CCC(=O)O)ccc2-c2ccccc2)c1 -18.2%
CCCN1CCN(C(=O)Cn2ncc3c4ccccc4n(Cc4cccc(Cl)c4)c3c2=O)CC1 -9.37%
CC1CC(=O)N(CC(=O)Nc2ccc(OC(F)(F)F)cc2)c2ccccc2S1 (stereo not drawn) 38%
Cc1ccc(CCNC(=O)c2cc3cc(S(=O)(=O)N4CCCCC4)ccc3n2C)cc1 -15.5%
CCOc1ccc(-n2nc3ccc(NC(=O)c4ccc(C)cc4C)cc3n2)cc1 25.7%
Cc1cccc(N(C)C(=O)c2cc3c(=O)oc4ccc(C)cc4c3s2)c1 -5.35%
O=C(Nc1c(C(=O)N2CCN(c3ccccc3)CC2)oc2ccccc12)c1ccccc1F -9.1%
COC(=O)c1ccc(C(=O)OC)c(NC(=O)c2cnn3c(C(F)F)cc(-c4ccc(C)cc4)nc23)c1 6.32%
COc1ccc(Cl)cc1C(=O)NCCc1ccc(S(=O)(=O)NC(=O)NC2CCCCC2)cc1 18.7% and -4.54%
CCN1CCN(CCCNC(=O)c2cnn(-c3ccc(OC)cc3)c2C2CCN(C(=O)OC(C)(C)C)CC2)CC1 -4.73%
CCN1CCOC(=O)C1CC(=O)Nc1cc(Cl)ccc1C (stereo not drawn) 6.85%

activation, active:
CCOC(=O)CSc1nc2ccc(NC(=O)COc3ccccc3C)cc2s1 75.2%
